The data set has as its target Escherichia coli (laboratory strain). Put plainly: barcode share on antibiotic plates over drug-free plates; higher = less susceptible. The procedure:
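A pool of E. coli strains, each edited to carry one amino-acid change in an essential protein, was grown for 48 h on minimal glucose agar with or without antibiotic; strain barcodes were sequenced; mean of two replicates.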

Where [1] appears, read: antibiotic: carbenicillin, 2× MIC (3.1 µg/mL).
The mark [2] stands for this setting: antibiotic: gentamicin, 2× MIC (MIC 0.45 µg/mL).

Substitutions are numbered along the chain they refer to. Numbers in names are those of the source. ± gives the standard deviation of the averaged measurements. Laboratory Escherichia coli strains with one amino-acid change in an essential protein, pooled on minimal glucose agar with carbenicillin or gentamicin at twice the control MIC (plus kanamycin and chloramphenicol for the plasmids), 48 h. Fold change of barcode share against drug-free plates; higher = less susceptible. Active = above 20 in both replicates (the paper's putatively resistant). '<' = one read or none on drug, '>' = one read or none on a drug-free plate. Shares are relative, so most strains fall below 1 when a few take over. Listed are strains with at least 15 reads on both drug-free plates, and hits; most hits rest on fewer reference reads. Replicate rank correlation about 0.5. Edits are read from barcodes. Bounds are passed on as bounds.

B1: pdxH V55A (protein)
chain: MSDNDELQQIAHLRREYTKGGLRRRDLPADPLTLFERWLSQACEAKLADPTAMVAATVDEHGQPYQRIVLLKHYDEKGMVFYTNLGSRKAHQIENNPRVSLLFPWHTLERQVMVIGKAERLSTLEVMKYFHSRPRDSQIGAWVSKQSSRISARGILESKFLELKQKFQQGEVPLPSFWGGFRVSLEQIEFWQGGEHRLHDRFLYQRENDAWKIDRLAP
Regarding B1, the “fold change of barcode share” value reads like this: under setting [1], 0.328 ± 0.014; under setting [2], 0.00971 ± 0.0092.

B2: pdxH M53P (protein)
chain: B1 chain with M53P, A55V
Regarding B2, the “fold change of barcode share” value under setting [1] amounted to 1.47 ± 0.66 and the “fold change of barcode share” value under setting [2] was 0.00509 ± 0.0059.

B3: pdxH M53A (protein)
chain: B1 chain with M53A, A55V
As for B3, the “fold change of barcode share” value runs as follows: under setting [1], 0.526 ± 0.29; under setting [2], 0.00337 ± 0.00045.

B4: pdxH F81W (protein)
chain: B1 chain with A55V, F81W
In the case of B4, the “fold change of barcode share” value under setting [1] worked out at 0.184 ± 0.025.

B5: pdxH V55Q (protein)
chain: B1 chain with A55Q
As for B5, the “fold change of barcode share” value runs as follows: under setting [1], 0.724 ± 0.044; under setting [2], 0.00913 ± 0.007.

B6: pdxH V55D (protein)
chain: B1 chain with A55D
For B6, the “fold change of barcode share” value under setting [1] was 0.903 ± 0.54.

B7: pdxH M53Q (protein)
chain: B1 chain with M53Q, A55V
Consider B7, for which the “fold change of barcode share” value runs as follows: under setting [1], 0.291 ± 0.08; under setting [2], 0.00262 ± 0.00044.

B8: pdxB V96Q (protein)
chain: MKILVDENMPYARDLFSRLGEVTAVPGRPIPVAQLADADALMVRSVTKVNESLLAGKPIKFVGTATAGTDHVDEAWLKQAGIGFSAAPGCNAIAVQEYVFSSLLMLAERDGFSLYDRTVGIVGVGNVGRRLQARLEALGIKTLLCDPPRADRGDEGDFRSLDELVQRADILTFHTPLFKDGPYKTLHLADEKLIRSLKPGAILINACRGAVVDNTALLTCLNEGQKLSVVLDVWEGEPELNVELLKKVDIGTSHIAGYTLEGKARGTTQVFEAYSKFIGHEQHVALDTLLPAPEFGRITLHGPLDQPTLKRLVHLVYDVRRDDAPLRKVAGIPGEFDKLRKNYLERREWSSLYVICDDASAASLLCKLGFNAVHHPAR
In the case of B8, the “fold change of barcode share” value reads like this: under setting [1], 0.425 ± 0.097; under setting [2], 0.0121 ± 0.0033.

B9: pdxB V96P (protein)
chain: B8 chain with Q96P
As for B9, the “fold change of barcode share” value reads like this: under setting [1], 0.409 ± 0.034; under setting [2], 0.0117 ± 0.00075.

B10: pdxB V96D (protein)
chain: B8 chain with Q96D
Take B10: the “fold change of barcode share” value worked out at 0.717 ± 0.19 under setting [1] and 0.0157 ± 0.0066 under setting [2].

B11: pdxB L104W (protein)
chain: B8 chain with Q96V, L104W
Turning to B11, the “fold change of barcode share” value by setting is: under setting [1], 0.657 ± 0.36; under setting [2], < 0.0115.

B12: pdxB V313Q (protein)
chain: B8 chain with Q96V, V313Q
For B12, the “fold change of barcode share” value was 0.68 ± 0.16 under setting [1] and < 0.0123 under setting [2].

B13: pdxB V313A (protein)
chain: B8 chain with Q96V, V313A
On to B13, for which the “fold change of barcode share” value under setting [1] is 0.594 ± 0.29 and the “fold change of barcode share” value under setting [2] was < 0.0144.

B14: pdxB L104D (protein)
chain: B8 chain with Q96V, L104D
For the protein B14, the “fold change of barcode share” value under setting [1] was 1.34 ± 0.26.

B15: pdxB L104Q (protein)
chain: B8 chain with Q96V, L104Q
As for B15, the “fold change of barcode share” value runs as follows: under setting [1], 0.625 ± 0.029; under setting [2], < 0.0112.

Values taken from the supplement of paper PMC11876631.
